Laboratory results reported in PubChem BioAssay AID1159614 (National Center for Advancing Translational Sciences (NCATS), 2016).
The campaign covered roughly 45,000 compounds. About 65 (0.1%) were called active. The call rests on the fitted dose curve; in most records, active means well fitted activation curve with a large enough effect; inconclusive means small, poorly fitted or top-dose-only effect; inactive means no such curve, though single readings can be large or run the other way. Some of the results follow.

biological target: Galactocerebrosidase (Homo sapiens) (UniProt P54803); assay: A Novel Cell-Based Assay to Identify Small Molecules for B -Galactocerebrosidase; details: 145M-Twi-hGALC-G270D cells, HMU-beta-Gal fluorescence, 48 h; series mostly up to 57.5 µM; activation: at the top concentration; further: 0% is about no effect; nearly all actives have a fitted effect of over 65% in size
UniProt P54803, sequence (P54803 whole entry, looked up): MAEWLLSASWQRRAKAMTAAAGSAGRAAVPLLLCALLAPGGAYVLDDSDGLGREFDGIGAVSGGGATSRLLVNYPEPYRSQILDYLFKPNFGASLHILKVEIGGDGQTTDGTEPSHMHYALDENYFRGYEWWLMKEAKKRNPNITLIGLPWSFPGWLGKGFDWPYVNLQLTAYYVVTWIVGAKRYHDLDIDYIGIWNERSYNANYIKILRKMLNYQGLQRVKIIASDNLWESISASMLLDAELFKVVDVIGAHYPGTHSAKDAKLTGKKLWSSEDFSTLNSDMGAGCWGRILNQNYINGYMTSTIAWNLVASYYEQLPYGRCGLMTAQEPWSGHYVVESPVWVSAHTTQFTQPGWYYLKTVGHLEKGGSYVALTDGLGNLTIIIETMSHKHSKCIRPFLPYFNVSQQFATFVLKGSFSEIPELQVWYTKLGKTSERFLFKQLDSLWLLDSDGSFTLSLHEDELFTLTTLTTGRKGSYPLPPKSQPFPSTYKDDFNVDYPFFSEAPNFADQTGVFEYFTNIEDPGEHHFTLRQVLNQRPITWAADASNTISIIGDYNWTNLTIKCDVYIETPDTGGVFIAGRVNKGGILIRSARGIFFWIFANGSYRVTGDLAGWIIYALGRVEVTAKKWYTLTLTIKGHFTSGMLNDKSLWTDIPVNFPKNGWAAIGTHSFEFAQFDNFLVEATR
In short: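 qHTS, 1536-well; 145M-Twi-hGALC-G270D cells (WT line also made) in DMEM/F12 + 10% FBS; compound incubation on live cells; HMU-β-gal 0.1 mM final, pH 5.2, NaTC; carbonate stop; fluorescence increase = enhanced residual activity.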

activation, inactive:
CCCN(CCC)C(=O)C(CCC(=O)O)NC(=O)c1ccccc1 (stereo unspecified) -12.4%
COc1ccccc1CCNC(=O)C1CCN(c2nc3ccccc3nc2C(F)(F)F)CC1 -13.4%
COC(=O)c1ccccc1NC(=O)CSc1c2c(nc3ccc(Cl)cc13)CCCC2 2.71%
CCn1cnc2cc(NCc3ccc(N(C)C)cc3)ccc21 -34.9%
CC(C)c1ccc(NC(=O)CN(C)S(=O)(=O)c2ccc3c(c2)n(C)c(=O)c(=O)n3C)cc1 -5.37%
CCOC(=O)N1CCN(CCC(=O)Nc2cc(C)ccc2C)CC1 -20.2%
CCn1cc2nc(SCC(=O)Nc3cccc(Cl)c3C)n(Cc3ccc(Cl)cc3)c(=O)c2n1 -8.91%
CCOc1ccc(C(=O)Nc2ccc3nc(SCC(=O)N4CCCC4)sc3c2)cc1 -11%
CCc1ccc(CNC(=O)c2cnc3sc(N4CCCCCC4)nn3c2=O)cc1 -0.908%
CCC1CCCCN1C(=O)CSc1nc(-c2ccc(OC)cc2)cc(C(F)(F)F)n1 (stereo unspecified) -6.72%
CCCCCCCCCCCCOS(=O)(=O)O -17.7%
COC(=O)c1cc(NC(=O)CCc2c(C)nc3nc(C)nn3c2C)cc(C(=O)OC)c1 -23.4%
CCN1C(=O)c2ccccc2S(=O)c2ccc(C(=O)N3CCN(c4cccc(Cl)c4)CC3)cc21 (stereo unspecified) -12.8%
O=C(Cc1ccc(F)cc1)NCCc1csc2nc(-c3ccc(Cl)cc3)nn12 -2.57%
CCOc1ccc(NC(=O)Cn2cc(C(=O)c3ccccc3)c(=O)c3cc(OC)ccc32)cc1 -16.9%
Cc1ccc2c(c1)-c1onc(C(=O)N(C)c3ccc(F)cc3)c1CO2 -3.95%
CCOC(=O)Cn1c(=O)cc(C)c2c(C)nn(-c3cccc(F)c3)c21 -26.4%
Cc1cccc(CC(=O)Nc2cccc(-c3cn4cccnc4n3)c2)c1 -7.31%
CC1=C(C(=O)Nc2ccccc2C)C(c2ccc[nH]2)n2ncnc2N1 (stereo unspecified) -17.3%
Cc1ccc(-n2ncc3c(=O)n(Cc4cccc(C(F)(F)F)c4)cnc32)cc1C -13.3%
CCCCn1c(SCc2ccccc2C#N)nc2c(sc3ccccc32)c1=O -14.3%
Cc1cccc(NC(=O)c2cc3c(C)nn(-c4ccccc4)c3s2)c1 -5.99%
O=C(CCc1nnc2n(Cc3ccccc3Cl)c(=O)c3ccccc3n12)Nc1ccccc1 -13.6%
CCCCN(c1ccccc1)S(=O)(=O)c1cc2c3c(c1)C(C)C(=O)N3CCC2 (stereo unspecified) -8.39%
COc1ccc(NC(=O)c2ccc(-c3nc(CSc4ccccc4)c(C)o3)cc2)c(OC)c1 -0.345%
O=C(NCc1ccc2c(c1)CCN2C(=O)c1ccncc1)c1cccc(F)c1 -6.75%
CCOC(=O)c1[nH]c(C)c(C(=O)NCc2ccccc2Cl)c1C -8.17%
Fc1ccc(-n2ncc3c(NCCCc4ccccc4)ncnc32)cc1 -5.54%
Cc1ccc(COC(=O)c2ccc(-c3nnn(Cc4ccc(C)cc4)n3)cc2)cc1 -18.1%
O=c1cc(-c2ccccc2)nc(SCc2nc(-c3cccc(C(F)(F)F)c3)no2)[nH]1 -18%
CCN(CCCNC(=O)CN1N=C(c2ccc(C)cc2)CCC1=O)c1ccccc1 -17.4%
Cc1ccn2c(=O)c(NC(=O)c3cccc([N+](=O)[O-])c3C)c(C)nc2c1 -16.3%
CCOc1ccc(C2c3[nH]c4ccccc4c3CCN2C(=O)CCC2CCCC2)cc1 (stereo unspecified) -14.3%
CCOC(=O)C1CCCN(S(=O)(=O)c2cc(Br)cc3c2N(C(=O)CC)CC3)C1 (stereo unspecified) -4.48%
CN1CCC(=C2c3ccccc3CC(=O)c3sccc32)CC1 -11.9%
CC(=O)C(Sc1nc(-c2ccccc2Cl)nc2c1c(=O)n(C)c(=O)n2C)C(=O)N(C)C (stereo unspecified) -12.5%
CCCCN(CC)C(=O)Cn1cc2c(n1)-c1c(oc(C(=O)N3CCCC3)c1C)CC2 -8.6%
COc1cc(NC(=O)C2CCN(S(=O)(=O)c3c(C)noc3/C=C/c3c(C)cc(C)cc3C)CC2)cc(OC)c1 -13.3%
COc1ccc(OC)c(CNc2ncc(-c3ccc(Cl)cc3)n2C)c1 -11.3%
Cc1cccc(C)c1NC(=O)c1cc2sccc2n1Cc1ccc(F)cc1 -4.62%
CCN(Cc1ccccc1)S(=O)(=O)c1ccc(F)c(C(=O)Nc2ccc(C(C)C)cc2)c1 -12.8%
CCOC(=O)c1cccc(NC(=O)NC2COc3ccccc3C2)c1 (stereo unspecified) -16.8%
Cc1ccc(CNC(=O)c2cn(C)c3ccc(S(=O)(=O)N4CCC(C)CC4)cc3c2=O)cc1 -18%
COc1cccc(C(=O)c2cn(CC(=O)Nc3ccc4c(c3)OCCO4)c3nc(C)ccc3c2=O)c1 -9.93%
Cc1ccc(CNC(=O)CCCn2nc(C)n3c(cc4sccc43)c2=O)cc1 -10%
CCC(=O)N1CCc2cc(S(=O)(=O)NC(CC(C)C)C(=O)NCc3cccc(OC)c3)ccc21 (stereo unspecified) -21.2%
CCOc1ccc(CC(=O)NCc2ccc3c(c2)CCN3C(=O)c2ccc(F)cc2)cc1OCC -17.7%
CN1CCCC(CC2c3ccccc3Sc3ccccc32)C1 (stereo unspecified) -5.83%
Cc1ccc(Sc2c(C)nn(-c3ccccc3)c2OC(=O)CC(C)C)cc1 -9.92%
COc1ccccc1N1CCN(CC(O)COc2cccc3ccccc23)CC1 (stereo unspecified) 2.25%
O=C(NCCCc1ccccc1)c1ccc2c(c1)sc1nc(-c3ccc(F)cc3)cn12 -20.1%
Cc1ccccc1CN1C(=O)c2ccccc2Sc2ccc(C(=O)NCCCN3CCOCC3)cc21 -2.48%
Cc1cc(C)cc(NC(=O)C2CCCN2S(=O)(=O)c2ccc3c(c2)C(C)(C)C(=O)N3C)c1 (stereo unspecified) -1.5%
COc1ccccc1NC(=O)c1oc2ccccc2c1NC(=O)c1c(F)cccc1F -20.2%
CCOC(=O)C1(C)C=C(Nc2ccc(OC)cc2)C(=O)N1c1ccccc1 (stereo unspecified) -16.3%
CCOC(=O)c1ccc(NC(=O)c2ccc3c(c2)c(C)c(C)n3Cc2ccc(F)cc2)cc1 -0.683%
Cc1cc(C)c(Cn2c3ccccc3c3cnn(CC(=O)NC4CCCCCC4)c(=O)c32)c(C)c1 -11.5%
COc1ccc(Cn2cc(C(=O)c3ccc(Cl)cc3)c(=O)c3cc4c(cc32)OCO4)cc1 -13.9%
CCc1ccc(Nc2nn3c(=O)c4cc5c(cc4nc3s2)OCO5)cc1 2.79%
COc1cc(OC)cc(C(=O)Nc2ccc(S(=O)(=O)N3CCCCC3c3cccnc3)cc2)c1 (stereo unspecified) 18.8%
O=C(Nc1cccc(Cl)c1Cl)c1cc(S(=O)(=O)N2CCC3(CC2)OCCO3)ccc1F -17.4%
Cc1ccc(-n2nc3c(N4CCC(C(=O)N5CCC(C)CC5)CC4)nnc(C)c3c2C)cc1 -1.75%
CC(C)(Sc1cc(C(C)(C)C)c(O)c(C(C)(C)C)c1)Sc1cc(C(C)(C)C)c(O)c(C(C)(C)C)c1 -19.1%
O=C(CSc1oc(-c2ccccc2)nc1S(=O)(=O)c1ccc(Br)cc1)NC1CCCCC1 -11.6%
Cc1ccc(C2=Nc3ccccc3N(CC(=O)NCc3ccc(Cl)cc3)C(=O)C2)cc1C -13.5%
COc1cccc(-c2ccc3c(N)c(C(=O)Nc4ccc(Cl)cc4F)sc3n2)c1 -5.27%
COc1ccc(OC)c(NC(=O)Cc2c(C(=O)O)[nH]c3ccc(Cl)cc23)c1 -25.1%
CCc1ccccc1NC(=O)Cc1ccc(-n2c(C)nc3cccnc32)cc1 -12.9%
CC(=O)Nc1nonc1-c1nnc(SCc2ccccc2C)n1C -8.5%
CCOc1nc(NC(=O)NS(=O)(=O)Oc2cccc(F)c2)nc(-c2ccccc2)n1 -17.4%
COc1ccc(CNC(=O)c2ccc3c(c2)N(Cc2ccccc2F)C(=O)c2ccccc2S3=O)cc1 (stereo unspecified) -12%
CC(C)Cn1c(=O)c2sccc2n2c(CCCC(=O)NCC(C)c3ccccc3)nnc12 (stereo unspecified) -14.4%
O=C(NCCN1CCN(c2ccccc2F)CC1)C1COc2ccccc2C1 (stereo unspecified) 3.79%
Cc1ccc(NC(=O)c2cc3c(Cl)nc4ccc(C)cc4c3s2)c(Cl)c1 -9.88%
COc1ccc(NC(=O)CSc2nc3ccccc3n2CC(=O)N2CCCC(C)C2)cc1 (stereo unspecified) -12.8%
Cc1cc(C)n(-c2nc3cc(Cl)c(Cl)cc3nc2Nc2ccc(F)cc2C)n1 -29.9%
Cc1cccc(C(=O)Nc2c(-c3ccc(F)cc3)nc3ccccn23)c1 12.5%
CCn1c(=O)c2cc(C(=O)Nc3cc(C)c(Cl)cc3OC)sc2c2ccccc21 -1.53%
Cc1ccc(C)c(N2CCN(C(=O)c3cc4c(=O)n(Cc5cccnc5)ccc4nc3C)CC2)c1 -19.9%
O=C(c1ccc(Cl)cc1)N1CCCCC1CCN1CCOCC1 (stereo unspecified) -0.676%
Cc1cccc(CSc2nc3cccnc3n2Cc2ccc(C(=O)NCc3cccs3)cc2)c1 -5.36%
CCOC(=O)c1sc(NC(=O)c2nc3ncccn3n2)c(C(=O)OC(C)C)c1C -18.5%
CC(=O)N(Cc1cccnc1)c1nc2c(C)cc(C)cc2s1 5.74%
CCOc1ccccc1N1CC(c2nc3ccccc3n2CCOc2ccc(OC)cc2)CC1=O (stereo unspecified) -3%
COc1ccc(CNC(=O)c2cc(-c3cccs3)nc3ccccc23)c(OC)c1 3.26%
Cc1ccc(NS(=O)(=O)c2ccc3[nH]c4c(c3c2)CCCC4)c(C)c1 0.907%
CC1CCc2c(sc3nnn(Cc4ccccc4)c(=O)c23)C1 (stereo unspecified) -13%
Cc1ccc(-c2nc3ccccn3c2Nc2c(C)cccc2C)o1 -10.6%
Cc1nnc(N2CCCC(C(=O)Nc3ccccc3C(F)(F)F)C2)c2nn(-c3ccccc3)c(C)c12 (stereo unspecified) -9.08%
O=C(Cn1ncc2c([nH]c3ccccc32)c1=O)Nc1cc(F)ccc1F 9.59%
Cc1cccc(N2CCN(C(=O)C3CCN(S(=O)(=O)c4c(C)noc4/C=C/c4ccccc4F)CC3)CC2)c1C -0.21%
O=C(NCc1ccc2c(c1)OCO2)c1ccc2c(c1)N(Cc1cccc(Cl)c1)C(=O)c1ccccc1S2 -21.8%
Cc1ccc(C(=O)c2sc(Nc3ccccc3F)c(S(=O)(=O)c3ccccc3)c2N)c(C)c1 -17.6%
COc1ccc(C(=O)N(Cc2sccc2C)C2CCS(=O)(=O)C2)cc1Cl (stereo unspecified) -13.4%
CCN1CCN(C(=O)c2ccc3c(c2)N(Cc2ccc(Cl)cc2)C(=O)c2ccccc2S3(=O)=O)CC1 -12.3%
Cc1cc(C)c(S(=O)(=O)Nc2cc(-c3cn4ccccc4n3)ccc2C)cc1C -10.9%
